The full ranking holds about 33,000 sequences; the median of “E-score (-0.5 to 0.5)” is about -0.016, and the highest 2% start at about 0.32. This is one part of the list.
Molecular target: T1, Stp1 (UniProt B3LFK1)
T1 sequence: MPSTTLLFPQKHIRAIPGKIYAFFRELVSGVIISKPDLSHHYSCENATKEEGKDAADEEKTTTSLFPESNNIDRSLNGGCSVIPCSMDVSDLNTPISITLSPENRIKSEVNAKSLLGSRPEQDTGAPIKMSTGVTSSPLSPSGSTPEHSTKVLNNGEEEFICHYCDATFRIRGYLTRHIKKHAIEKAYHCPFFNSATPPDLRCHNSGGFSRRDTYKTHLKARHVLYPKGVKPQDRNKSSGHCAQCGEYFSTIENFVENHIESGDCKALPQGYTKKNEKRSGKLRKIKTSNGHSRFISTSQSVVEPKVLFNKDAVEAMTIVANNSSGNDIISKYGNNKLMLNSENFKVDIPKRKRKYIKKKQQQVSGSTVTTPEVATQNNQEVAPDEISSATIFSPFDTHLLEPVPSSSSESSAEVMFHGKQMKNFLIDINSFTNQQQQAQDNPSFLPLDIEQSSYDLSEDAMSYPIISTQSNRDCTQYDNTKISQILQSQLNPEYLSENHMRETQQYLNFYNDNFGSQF
Experiment: PBM E-score (8-mer binding enrichment) (E-score (-0.5 to 0.5)); higher = stronger / more preferred TF binding; most listed sequences are background and not binding sites
Conditions: protein concentration: 200 nM; construct: GST-full length
How it was run: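 Each ungapped eight-base word and its reverse complement, pooled, received an E-score from the Universal PBM Analysis Suite. Underlying scans, normalised with masliner, recorded fluorescent anti-GST bound to GST-tagged yeast transcription factors. These were applied at about 100-200 nM to universal all-10-mer Agilent arrays double-stranded by primer extension.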

Row | Sequence | PBM E-score
1 | GTTACGCA | -0.0687
2 | CCGCATCA | 0.282
3 | CAGTGGAA | -0.0152
4 | AGATCCTG | -0.32
5 | CAGTACCA | -0.167
6 | CATGGCCA | -0.15
7 | ACGATTAC | -0.0334
8 | GATTAGGC | 0.02
9 | CCAGAGCA | -0.0297
10 | CCTTAACC | -0.221
11 | AATTGACG | -0.0215
12 | CGGATACA | 0.144
13 | AGCGGGAA | 0.105
14 | ATGATCGC | -0.0857
15 | CCCCTCTC | -0.353
16 | AATTGATA | 0.22
17 | CTTCCTCA | -0.149
18 | ATGACACA | 0.206
19 | GCAAGCAC | -0.119
20 | TATACACA | 0.119
21 | ATGTCATG | 0.0282
22 | GCCTGAGA | -0.195
23 | AAGAACTC | 0.0151
24 | CAGTTAGA | 0.031
25 | CGAGACCA | -0.16

Row | Sequence | PBM E-score
26 | CGTCACAA | 0.0793
27 | ATCATGTA | 0.0957
28 | GATACCGC | 0.0821
29 | ATTCGTAA | 0.0769
30 | CTCGTTCC | 0.0781
31 | GGTAGCGA | -0.184
32 | ACAAAATG | 0.223
33 | CTACAAGC | 0.0892
34 | CATGGGCG | 0.0374
35 | GGACGAGA | -0.12
36 | CTAAGGTC | -0.214
37 | ATACGCTG | -0.00337
38 | TCCTATCA | -0.0558
39 | ATTCTATA | 0.189
40 | CGAGGGAC | -0.245
41 | AAGGTAAT | 0.0497
42 | CTACCTAG | -0.205
43 | AACTGGCG | 0.126
44 | CTGCCCTA | -0.181
45 | AAGAATGG | -0.0655
46 | CGATCGTA | 0.0188
47 | AGTTTGCG | 0.0886
48 | AATATTTC | 0.159
49 | TAGGAGCA | -0.0313
50 | CTAAGCCC | -0.243

Row | Sequence | PBM E-score
51 | GATGTCGA | 0.0215
52 | AACTCCAT | -0.0761
53 | AAACGCGT | 0.0336
54 | GCGGTTCC | -0.075
55 | CAATCTCA | 0.00627
56 | AAACCAGT | 0.0102
57 | CGGCCGCA | 0.325
58 | CGAACTCA | -0.141
59 | GCAGCCAC | 0.132
60 | CCCGGTTA | -0.0439
61 | ACCCTGTG | -0.0276
62 | ATACTCCA | -0.044
63 | GCACGACA | 0.0543
64 | TCGAGAGA | -0.116
65 | AAAAGTCG | -0.00811
66 | ACGGAATC | 0.113
67 | GATTCTAC | 0.154
68 | GTGATTAA | 0.0766
69 | CTACCAGC | -0.156
70 | ATGACGAA | 0.115
71 | ACTCGGAC | -0.166
72 | CAGAGGGC | 0.0551
73 | ACTACAGG | 0.0819
74 | AGTTTGAG | -0.0314
75 | AGTATGAA | -0.0188

Row | Sequence | PBM E-score
76 | AGAAGCGG | 0.117
77 | CCGTGGGC | 0.197
78 | AGCCAGTC | -0.0837
79 | AGACTGCC | 0.0841
80 | CACCACCG | -0.19
81 | ACTAAGCT | 0.075
82 | AGGTACCC | -0.414
83 | CATCCAAC | -0.104
84 | CTTATAGC | -0.0511
85 | ATGAGGCA | 0.332
86 | GACGTTGC | -0.08
87 | ATATCATA | 0.0651
88 | ATATGCGC | 0.111
89 | ATAGGGGA | -0.34
90 | GGCCGTGA | 0.126
91 | GCAGTCGC | 0.0609
92 | ATTGTAAG | -0.0724
93 | CAATGCTC | -0.0633
94 | CAAACTTG | -0.0331
95 | CACGACTC | -0.162
96 | GAACAACC | 0.0417
97 | CGGCACCG | 0.437
98 | AATGCCGC | 0.465
99 | GAGGGTGA | -0.132
100 | AACCCGGG | -0.0425

Row | Sequence | PBM E-score
101 | AAGTACGG | 0.22
102 | TAGCTAGA | 0.00307
103 | CTATGAGC | -0.0622
104 | CATAGTAG | -0.0254
105 | AAGTCCCC | -0.26
106 | AACACATA | 0.129
107 | GTGCCTGA | -0.105
108 | TCAACAAA | 0.128
109 | TACACCGA | -0.125
110 | ATATGCCA | 0.153
111 | AACCCGGT | -0.236
112 | GAAAAGGC | 0.145
113 | CCACGCAA | 0.0719
114 | CAAGAGCA | -0.128
115 | ATCCACCA | -0.152
116 | CTTGCTTA | -0.203
117 | ACGCGCAC | -0.0204
118 | GAAGAGCA | -0.229
119 | AAAGAGAT | -0.102
120 | TACAGATA | 0.0785
121 | AATCCTGC | 0.0377
122 | CCACCGAC | -0.174
123 | AAACGATG | 0.101
124 | TAGCTGCA | -0.158
125 | ATATGGGC | -0.0537

Row | Sequence | PBM E-score
126 | ACAACGGT | -0.12
127 | ACACGGTA | 0.124
128 | CACCCAGC | -0.24
129 | ACTCGAGT | 0.176
130 | GCTCAGAC | -0.153
131 | AACCCGTT | 0.0288
132 | TCGGCTAA | 0.145
133 | AGACGGTA | -0.0204
134 | TAGTTGGA | -0.0689
135 | AGAATGAA | 0.165
136 | CGCCTCCC | -0.0341
137 | GAAGCTCA | -0.241
138 | AATTGGGG | -0.25
139 | AGGCAGCC | 0.0179
140 | AAAACGGG | 0.113
141 | AAGCCGGT | -0.0859
142 | GCGGGAGC | -0.236
143 | CAAGGGAG | -0.0939
144 | CCGTACGC | 0.327
145 | ATGTATGC | 0.114
146 | ATCCCCAT | 0.0301
147 | ACTAGACA | 0.0677
148 | CGTAGATC | 0.057
149 | ATCTAATA | 0.134
150 | CCCCATCA | -0.203

Row | Sequence | PBM E-score
151 | CAGCTATC | -0.201
152 | CGTCCTAG | -0.166
153 | AAAGACTA | 0.00271
154 | TATTGTGA | 0.0206
155 | AGCTTCGC | -0.0523
156 | AGAATAGG | 0.0673
157 | AAAACGAC | 0.0313
158 | ATGCAGCG | 0.0428
159 | AGTGGTAC | -0.0919
160 | ATGATCCG | 0.151
161 | GTTCCGGA | -0.115
162 | CCTGCCAG | -0.259
163 | ACGTTCCG | -0.106
164 | AGAGGATA | -0.0877
165 | CTTTCCTC | -0.0795
166 | GCGACCCA | -0.234
167 | AATCCTAT | 0.1
168 | CCAGGTTC | -0.226
169 | CCATCAGC | -0.131
170 | CCCAATCC | -0.251
171 | GGAGACAA | 0.0426
172 | CAAAGGTG | -0.0209

Source: the supplement of paper PMC3334620
